Source: the supplement of paper PMC3334620
Over roughly 33,000 sequences, “E-score (-0.5 to 0.5)” has its median near -0.041; the highest 2% begin near 0.37. The list shows a part of the results.

target: T1, Ecm22 (UniProt Q05958); test: PBM E-score (8-mer binding enrichment) (E-score (-0.5 to 0.5)); higher = stronger / more preferred TF binding; most listed sequences are background and not binding sites; conditions: protein concentration: 200 nM; construct: GST-full length
T1 sequence: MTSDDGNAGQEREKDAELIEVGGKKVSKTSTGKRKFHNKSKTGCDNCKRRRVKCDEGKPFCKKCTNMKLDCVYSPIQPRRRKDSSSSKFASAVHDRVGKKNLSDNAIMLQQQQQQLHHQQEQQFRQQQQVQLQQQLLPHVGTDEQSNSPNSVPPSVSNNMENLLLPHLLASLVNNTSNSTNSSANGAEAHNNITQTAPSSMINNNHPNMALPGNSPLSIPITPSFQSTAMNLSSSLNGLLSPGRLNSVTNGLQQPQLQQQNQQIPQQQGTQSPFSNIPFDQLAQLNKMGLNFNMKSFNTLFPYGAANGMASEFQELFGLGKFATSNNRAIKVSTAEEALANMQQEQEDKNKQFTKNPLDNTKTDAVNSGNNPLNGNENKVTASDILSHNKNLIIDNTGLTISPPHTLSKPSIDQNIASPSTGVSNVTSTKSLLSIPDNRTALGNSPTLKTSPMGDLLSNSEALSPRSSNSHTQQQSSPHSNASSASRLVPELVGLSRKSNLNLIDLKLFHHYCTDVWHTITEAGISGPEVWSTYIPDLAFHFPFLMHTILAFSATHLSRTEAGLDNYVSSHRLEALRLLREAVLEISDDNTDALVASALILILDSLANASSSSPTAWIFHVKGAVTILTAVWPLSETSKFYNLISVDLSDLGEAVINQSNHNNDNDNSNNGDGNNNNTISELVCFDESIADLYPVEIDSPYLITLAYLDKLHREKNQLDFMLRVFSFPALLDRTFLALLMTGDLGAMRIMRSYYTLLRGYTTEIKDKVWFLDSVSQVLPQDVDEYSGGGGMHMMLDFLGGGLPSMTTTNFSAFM
Method in brief: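 PURExpress in vitro transcription/translation supplied GST-tagged yeast transcription factors, either full-length or DNA-binding domain. Applied at about 100-200 nM to universal all-10-mer Agilent arrays double-stranded by primer extension, the bound protein was detected with fluorescent anti-GST. E-scores, modified Wilcoxon-Mann-Whitney statistics, were given by the Universal PBM Analysis Suite to ungapped eight-base words pooled with their reverse complements after masliner normalisation.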

Sequence	PBM E-score
GCTCGACC	-0.0173
ACAGTAAT	-0.0196
AACGAGCG	0.459
AAGTCGCG	0.152
ATTCTGCG	0.0686
GATGCTCA	-0.0716
AATCTGGC	-0.277
CGGTTCAG	0.0479
CAGAAATG	-0.165
GGGTGAGA	-0.286
CGACTCTA	0.164
GAGAGATA	-0.047
CCTACAAG	-0.00243
ATGATAGA	-0.0329
ACCAAACA	0.201
CACCACAG	-0.132
CCCTGACC	-0.0114
ACAGCCCC	-0.165
CTCCCGAC	0.155
AAGGCTTC	-0.137
GCGCAGAC	0.0727
CCTTTCAA	-0.203
CCAGAAGA	-0.143
ACGCGATG	0.12
CCATCAGA	-0.12

Sequence	PBM E-score
ACCTCAAC	-0.182
CAAAGAAC	-0.00879
GTATAGAA	0.25
AGGATCAC	-0.171
CCCTCAAG	-0.213
CTCGGTGA	0.101
CTGACGTA	0.132
CTAGCGTC	-0.161
ACTGTATA	0.104
AGTGATCG	0.126
ATGAACGG	0.262
GTTATTCA	0.0462
ATGCACTA	0.128
GCCCTCCC	-0.174
AGCGATAT	0.222
CAAAATAC	0.0309
CCAATTGA	-0.204
ATCACCTG	-0.277
GACCCAAA	0.00812
TAAGTGAA	0.072
CGCCACCC	-0.0601
GGCAAGAC	-0.065
ATTATTGG	-0.184
CCTAGATC	-0.139
GCTAAAGC	-0.0529

Sequence	PBM E-score
ACTCTGCA	-0.0125
CAGATCGG	-0.038
GCGAGCCA	0.0714
CGTACAGC	0.427
ACCATTTC	-0.202
CCCGTAAG	0.115
AACCCATC	-0.0889
ATGGACAT	-0.107
CCTCTTTA	-0.0699
GTAGTGTA	0.0666
GAAGGACA	-0.0935
ACAGCGTA	0.141
ACTCTACG	0.265
GGCCTGAA	-0.278
ACTTGTCG	0.204
CAATCAAC	-0.0638
GGAAACCA	-0.293
AAATGTAA	0.0253
AGTTTCTC	-0.021
CATGTCCA	-0.119
GTCGCGCA	-0.00296
CTACCCAA	-0.126
CTACAAAG	-0.238
AGTGACAG	-0.0965
GATCAGAA	-0.174

Sequence	PBM E-score
ATACCCCG	-0.128
AAGGGCAA	-0.163
CATTCAGC	-0.201
CAGCTATG	-0.0357
CATGGACA	-0.202
GATCGACC	0.0467
ACCCGACC	0.19
CAGTCATA	-0.194
TAGGGCAA	-0.185
CCGCTTGA	-0.116
AACAGGCG	-0.154
GCGTGGCA	-0.124
CAGTGTTA	0.0329
ATAATGTA	0.11
CGGGGAGC	-0.0232
CGCACGAC	0.07
ATTGCACA	-0.0338
GAGAAGTA	-0.0967
CGTCACAG	-0.1
ATAAGCGA	0.332
ACGCACAC	0.104
AGTGTGAT	0.107
CCTGTACC	-0.0544
AATGAGAA	-0.144
CCGACAAC	0.178

Sequence	PBM E-score
AACCGTTC	0.34
AGGTGGGC	-0.228
AGTCGAAT	-0.0942
ACCCACCT	-0.29
CCTGTCAC	-0.0408
ATTTCGTC	0.0861
TATAACAA	-0.0233
GTGAAGTA	0.0181
CCCGAGGG	0.158
ACTGATCG	0.00137
GCCTGGGA	-0.244
AAACTACA	-0.0352
ACGGCAGA	0.226
CATCGAAC	0.0164
AACTTAGT	-0.0291
ATCATGTG	-0.193
CGGGATAC	0.266
GGCTCCCC	-0.294
ATAATGCG	0.163
AGTTCCTA	0.102
CTCCCAGA	-0.111
ACAGAAGC	-0.0614
GCCATGGC	-0.296
ATACGAAC	0.474
GAGGGGGA	-0.0311

Sequence	PBM E-score
AGCACCCA	-0.0799
AACGCTTG	-0.121
TATCAAGA	-0.0146
ACCTGATC	-0.053
ACAGAACC	-0.115
TGTATAAA	0.172
AAACCCTC	-0.187
CAGCAACC	-0.127
TACTATAA	-0.0205
CCGCTCCG	0.238
CAGGCGCG	-0.16
ACTCGGAG	-0.0452
GTTTACGA	0.46
ACCCATAT	0.118
AACGATGA	0.386
CGAGAGCG	0.282
ACATTTAA	-0.0504
ATGTACGC	0.112
ACGATATG	0.313
GCCCGCAC	-0.0245
GCACGGTA	-0.0289
CTGACTCC	-0.149
ACGAGAAC	0.4
CTCTTAAC	0.0664
GCACTTCC	-0.303

Sequence	PBM E-score
ATTCCCAC	-0.151
GCAATCAC	-0.0838
AATGAGGC	-0.134
TAGGCAAA	-0.179
AAAGGCGG	0.0199
AATAGGTC	0.0337
ACCGATTA	0.219
CCTCCGAA	-0.154
GAACAGGC	-0.0122
CTGATTGA	-0.0814
AAACCACT	-0.153
GCCCGGAC	0.0159
AATAGCGA	0.128
ACTCGCTA	0.27
AATACCTG	-0.0223
ACGAAAGC	0.337
ATGAACCG	0.1
ACCTTAAG	0.0677
CCCCGAAA	-0.201
AATCGTCG	0.222
TAATCACA	-0.139
ACCGGTGG	-0.185
